# Data reported in PubChem BioAssay (Tox21).
# Inconclusive results, whose numbers are uncertain, are shown with a selection of clear calls. For some of these results: Potencies of inconclusive entries are left out as doubtful fits. Active and inactive are the calls of the source. Unless noted, the call rests on the fitted dose curve; in most records, active means well fitted curve in the direction sought with a large enough effect in the repeat runs; inconclusive means weak or mixed curves; inactive means no such curve, though single readings can be large; an effect the other way counts as inactive or inconclusive.
# What was measured:
# [1] = qHTS assay to identify small molecule agonists of the farnesoid-X-receptor (FXR) signaling pathway - cell viability counter screen (AID 743218); details: FXR-bla HEK293T viability, CellTiter-Glo luminescence, 16 h; viability change, negative = cytotoxic: at 62.6 µM (top of the series) unless noted; further: on the % scale 0 is the no-effect control and ±100 the full control effect; nearly all actives have a fitted effect of over 45% in size
# Outline: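 Viability of FXR-bla HEK 293T cells is measured by ATP-based CellTiter-Glo luminescence following 16 h compound treatment at 37 C and a prior 2 h room-temperature beta-lactamase substrate step.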
# [2] = molecular target: Vitamin D3 receptor (Homo sapiens) (UniProt P11473); assay: qHTS assay to identify small molecule antagonists of the vitamin D receptor (VDR) signaling pathway (AID 743223; active means well fitted inhibition curve with a large enough effect in the signal ratio in the repeat runs, not every such curve was filed as active; inconclusive means weak or mixed curves, or effect the other way; inactive means no such curve, though single readings can be large or run the other way; the % refers to the signal ratio; further: potency means the concentration at half of the fitted maximal effect; on activity change, negative = inhibition: on the % scale 0 is the no-effect control and ±100 the full control effect); details: VDR-UAS-bla HEK293T, beta-lactamase FRET ratio, 16 h; activity change, negative = inhibition: at 61 µM (top of the series) unless noted
# Chain of UniProt P11473 (P11473 whole entry, looked up): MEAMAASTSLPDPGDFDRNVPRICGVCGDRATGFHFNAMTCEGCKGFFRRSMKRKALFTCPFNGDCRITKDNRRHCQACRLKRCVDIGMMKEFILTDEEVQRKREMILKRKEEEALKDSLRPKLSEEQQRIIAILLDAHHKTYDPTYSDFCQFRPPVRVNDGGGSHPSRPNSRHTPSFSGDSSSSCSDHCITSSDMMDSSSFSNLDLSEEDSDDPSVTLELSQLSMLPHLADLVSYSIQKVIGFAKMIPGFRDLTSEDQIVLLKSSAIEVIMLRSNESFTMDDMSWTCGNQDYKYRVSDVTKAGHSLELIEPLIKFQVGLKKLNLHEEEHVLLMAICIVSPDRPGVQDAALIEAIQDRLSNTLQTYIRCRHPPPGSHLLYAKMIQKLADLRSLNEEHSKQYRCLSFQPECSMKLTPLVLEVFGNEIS
# Outline: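 Agonist 1alpha,25-dihydroxyvitamin D3 (3 nM in well) was added with each compound to VDR-bla cells preincubated 4 h. Cells stood 16 h at 37C, then FRET substrate 2 h at room temperature; fluorescence intensity recorded.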
# [3] = qHTS assay to identify small molecule agonists of the vitamin D receptor (VDR) signaling pathway - cell viability counter screen (AID 743224); details: VDR-bla HEK293T viability, CellTiter-Glo luminescence, 16 h; activity change, negative = cytotoxicity: at 62.6 µM (top of the series); further: potency means the concentration at half of the fitted maximal effect; nearly all actives have a fitted effect of over 50% in size
# Outline: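 Compounds were pin-transferred onto VDR-bla cells plated 4 h earlier; following 16 h incubation at 37C, cell viability was quantified by CellTiter-Glo luminescence after 30 min at room temperature.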
# [4] = qHTS assay to identify small molecule antagonists of the vitamin D receptor (VDR) signaling pathway - cell viability counter screen (AID 743225); details: VDR-bla HEK293T viability, CellTiter-Glo luminescence, 16 h; viability change, negative = cytotoxic: at 61 µM (top of the series) unless noted; further: potency means the concentration at half of the fitted maximal effect; nearly all actives have a fitted effect of over 50% in size
# Outline: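 Luminescent cell viability (CellTiter-Glo) in VDR-bla HEK 293T cells after 16 h compound exposure at 37C in the presence of 3 nM final 1-alpha,25-dihydroxy vitamin D3.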
# [5] = qHTS assay to identify small molecule agonists of the endoplasmic reticulum stress response signaling pathway (AID 1159516; active means well fitted activation curve with a large enough effect in the signal ratio in the repeat runs, not every such curve was filed as active; inconclusive means weak or mixed curves, or effect the other way; the % refers to the signal ratio; further: potency means the concentration at half of the fitted maximal effect; on activation: on the % scale 0 is the no-effect control and ±100 the full control effect); details: ESRE-bla HeLa, ER stress beta-lactamase reporter, 5 h; activation: at 61 µM (top of the series) unless noted
# Outline: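 Using a HeLa line with an ESRE-driven beta-lactamase gene, agonist activity was measured by FRET substrate fluorescence (460 and 530 nm emission) after cells were treated with compounds for 5 hr at 37 C and 5% CO2.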
# [6] = molecular target: Nuclear receptor ROR-gamma (Homo sapiens) (UniProt P51449); assay: qHTS assay to identify small molecule antagonists of the retinoid-related orphan receptor gamma (ROR-gamma) signaling pathway (AID 1159521; further: potency means the concentration at half of the fitted maximal effect; nearly all actives have a fitted effect of over 50% in size); details: Tet-on RORgamma CHO cells, RORE-luciferase, 16 h; series mostly up to 92.4 µM
# Outline: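 CHO cells expressing RORγ under a TET-on promoter, luciferase under RORE control. Dox 1 uM final, 16 h; compounds added 2 h prior. Luminescence decrease measured.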
# [7] = qHTS assay to identify small molecule agonists of the AP-1 signaling pathway (AID 1159526; calls by dose curve; further: potency means the concentration at half of the fitted maximal effect); details: ME-180 (cervical carcinoma) AP-1-bla reporter, beta-lactamase FRET ratio, 5 h; activation: at 76.8 µM (top of the series) unless noted
# [8] = molecular target: Retinoic acid receptor RXR-alpha (Homo sapiens) (UniProt P19793); assay: qHTS assay to identify small molecule agonists of the RXR signaling pathway (AID 1159527; calls by dose curve; further: nearly all actives have a fitted effect of over 35% in size; further: potency means the concentration at half of the fitted maximal effect); details: HEK293T RXRa-UAS-bla, beta-lactamase ratio, 16 h; activation: at 76.8 µM (top of the series) unless noted
# Chain of UniProt P19793 (P19793 whole entry, looked up): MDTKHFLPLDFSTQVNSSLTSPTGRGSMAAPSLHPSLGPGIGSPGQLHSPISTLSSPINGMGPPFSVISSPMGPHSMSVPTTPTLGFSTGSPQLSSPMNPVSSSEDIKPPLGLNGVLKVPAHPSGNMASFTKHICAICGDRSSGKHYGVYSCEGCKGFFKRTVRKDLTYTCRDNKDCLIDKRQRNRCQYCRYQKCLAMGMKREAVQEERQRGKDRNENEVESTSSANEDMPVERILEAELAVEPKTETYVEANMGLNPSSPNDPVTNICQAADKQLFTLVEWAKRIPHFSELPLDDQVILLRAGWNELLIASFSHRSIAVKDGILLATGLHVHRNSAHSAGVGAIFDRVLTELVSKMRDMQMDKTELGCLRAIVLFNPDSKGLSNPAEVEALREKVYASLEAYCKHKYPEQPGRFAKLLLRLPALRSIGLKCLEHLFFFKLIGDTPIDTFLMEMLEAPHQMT
# Outline: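 Beta-lactamase reporter assay, agonist format. Engineered HEK 293T line, charcoal-stripped FBS at 2%, overnight (16 hr) exposure, fluorescence at 460 and 530 nm after 405 nm excitation.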
# [9] = qHTS assay to identify small molecule agonists of the RXR signaling pathway - cell viability counter screen (AID 1159529); details: RXR-alpha-bla HEK293T viability, CellTiter-Glo, 16 h; series mostly up to 76.8 µM; further: potency means the concentration at half of the fitted maximal effect; nearly all actives have a fitted effect of over 50% in size
# Outline: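 Same-well viability check after the LiveBLAzer FRET read: CellTiter-Glo added, luminescence measured after 30 min at room temperature. Reporter HEK 293T cells had been treated with compounds for 16 hr following a 5 hr preincubation.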
# [10] = qHTS assay to identify small molecule antagonists of the peroxisome proliferator-activated receptor delta (PPARd) signaling pathway - cell viability counter screen (AID 743213); details: PPARd-bla HEK293H viability, CellTiter-Glo luminescence, 17 h; viability change, negative = cytotoxic: at 62 µM (top of the series) unless noted
# Outline: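 Viability counter-screen, qHTS format: PPARd-bla HEK293H, L165041 300 nM final, 17 h compound exposure at 37 C, CellTiter-Glo luminescence after 30 min RT.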
# [11] = molecular target: Bile acid receptor (Homo sapiens) (UniProt Q96RI1); assay: qHTS assay to identify small molecule antagonists of the farnesoid-X-receptor (FXR) signaling pathway (AID 743217; active means well fitted inhibition curve with a large enough effect in the signal ratio in the repeat runs, not every such curve was filed as active; inconclusive means weak or mixed curves, or effect the other way; inactive means no such curve, though single readings can be large or run the other way; the % refers to the signal ratio; further: potency means the concentration at half of the fitted maximal effect); details: HEK293T FXR-UAS-bla, beta-lactamase ratio, CDCA-stimulated, 16 h; activity change, negative = inhibition: at 62.6 µM (top of the series) unless noted
# Chain of UniProt Q96RI1 (Q96RI1 whole entry, looked up): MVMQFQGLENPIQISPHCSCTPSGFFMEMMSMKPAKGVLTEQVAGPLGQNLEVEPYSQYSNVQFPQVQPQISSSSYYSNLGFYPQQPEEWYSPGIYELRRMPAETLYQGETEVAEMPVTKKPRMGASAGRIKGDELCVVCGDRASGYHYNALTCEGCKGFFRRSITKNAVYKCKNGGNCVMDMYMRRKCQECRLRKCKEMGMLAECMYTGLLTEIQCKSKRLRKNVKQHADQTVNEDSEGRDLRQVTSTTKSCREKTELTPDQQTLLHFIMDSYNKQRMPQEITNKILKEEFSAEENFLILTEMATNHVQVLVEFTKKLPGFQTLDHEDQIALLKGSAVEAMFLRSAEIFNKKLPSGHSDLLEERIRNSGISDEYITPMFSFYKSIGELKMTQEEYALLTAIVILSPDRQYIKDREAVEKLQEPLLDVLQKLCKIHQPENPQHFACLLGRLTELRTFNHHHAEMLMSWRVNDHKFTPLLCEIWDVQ
# Outline: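 Screen of the Tox21 10K library in quantitative HTS format using FXR-UAS-bla HEK 293T reporter cells. Agonist chenodeoxycholic acid, 50 uM final, added with compounds; 16 h incubation at 37 °C; beta-lactamase FRET fluorescence measured.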
# [12] = molecular target: Bile acid receptor (Homo sapiens) (UniProt Q96RI1); assay: qHTS assay to identify small molecule agonists of the farnesoid-X-receptor (FXR) signaling pathway (AID 743220; active means well fitted activation curve with a large enough effect in the signal ratio in the repeat runs, not every such curve was filed as active; inconclusive means weak or mixed curves, or effect the other way; the % refers to the signal ratio; further: potency means the concentration at half of the fitted maximal effect); details: HEK293T FXR-UAS-bla, beta-lactamase FRET ratio, 16 h; activation: at 62.6 µM (top of the series) unless noted
# Outline: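 FXR-UAS-bla HEK 293T cells carrying a UAS-driven beta-lactamase reporter were plated for 5 h at 37C/5% CO2, then exposed to DMSO-dissolved Tox21 10K compounds for 16 h at 37C. A LiveBLAzer B/G FRET substrate was loaded for 2 h at room temperature before fluorescence reading.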
# [13] = qHTS assay to identify small molecule antagonists of the farnesoid-X-receptor (FXR) signaling pathway - cell viability counter screen (AID 743221; active means well fitted cell-killing curve with a large enough effect in the repeat runs, not every such curve was filed as active; inconclusive means weak or mixed curves, or effect the other way; inactive means no such curve, though single readings can be large or run the other way); details: FXR-bla HEK293T viability, CellTiter-Glo luminescence, 16 h; activity change, negative = cytotoxicity: at 62.6 µM (top of the series)
# Outline: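 In GeneBLAzer FXR-UAS-bla HEK 293T cells stimulated with 50 uM chenodeoxycholic acid (final), compounds acted for 16 h at 37 C. Viability was assessed afterwards by CellTiter-Glo luminescence.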
# [14] = molecular target: Vitamin D3 receptor (Homo sapiens) (UniProt P11473); assay: qHTS assay to identify small molecule agonists of the vitamin D receptor (VDR) signaling pathway (AID 743222; calls by dose curve; further: potency means the concentration at half of the fitted maximal effect); details: HEK293T VDR-UAS-bla, beta-lactamase FRET ratio, 16 h; activation: at 63.5 µM (top of the series) unless noted
# Outline: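 Fluorescence from cleaved LiveBLAzer B/G FRET substrate served as readout. VDR-bla cells had been treated 16 h at 37C with test compounds in DMSO, following a 4 h settling period, and substrate was loaded for 2 h at RT.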
# [15] = molecular target: Peroxisome proliferator-activated receptor delta (Homo sapiens) (UniProt Q03181); assay: qHTS assay to identify small molecule agonists of the peroxisome proliferator-activated receptor delta (PPARd) signaling pathway (AID 743212; calls by dose curve;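 further: HEK293H cells with PPARd UAS beta-lactamase reporter GeneBLAzer system; on the % scale 0 is the no-effect control and ±100 the full control effect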); details: HEK293H PPARd-UAS-bla, beta-lactamase FRET ratio, 17 h; activation: at 62.6 µM (top of the series) unless noted
# Chain of UniProt Q03181 (Q03181 whole entry, looked up): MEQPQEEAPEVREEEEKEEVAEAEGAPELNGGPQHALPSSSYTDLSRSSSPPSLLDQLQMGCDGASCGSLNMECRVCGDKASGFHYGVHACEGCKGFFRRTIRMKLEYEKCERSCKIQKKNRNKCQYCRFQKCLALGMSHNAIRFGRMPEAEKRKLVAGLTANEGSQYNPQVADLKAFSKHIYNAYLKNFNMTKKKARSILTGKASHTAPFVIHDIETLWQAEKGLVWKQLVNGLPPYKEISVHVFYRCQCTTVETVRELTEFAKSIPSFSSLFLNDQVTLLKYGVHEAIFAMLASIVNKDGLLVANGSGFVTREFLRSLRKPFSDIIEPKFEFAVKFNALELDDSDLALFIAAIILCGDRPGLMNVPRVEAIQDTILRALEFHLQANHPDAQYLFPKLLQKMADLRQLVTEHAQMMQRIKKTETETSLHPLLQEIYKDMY
# Outline: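 Beta-lactamase reporter read by fluorescence (LiveBLAzer B/G FRET, 2 h, room temperature). Test agents, in DMSO, incubated at 37 C with PPARd-bla HEK293H cells.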
# [16] = molecular target: Peroxisome proliferator-activated receptor delta (Homo sapiens) (UniProt Q03181); assay: qHTS assay to identify small molecule antagonists of the peroxisome proliferator-activated receptor delta (PPARd) signaling pathway (AID 743215; active means well fitted inhibition curve with a large enough effect in the signal ratio in the repeat runs, not every such curve was filed as active; inconclusive means weak or mixed curves, or effect the other way; inactive means no such curve, though single readings can be large or run the other way; the % refers to the signal ratio;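 further: cells stimulated with agonist L165041 at 300 nM final during compound exposure; on the % scale 0 is the no-effect control and ±100 the full control effect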); details: HEK293H PPARd-UAS-bla, beta-lactamase FRET ratio, antagonist, 17 h; ratio activity, negative = inhibition: at 62 µM (top of the series) unless noted
# Outline: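 Plated HEK293H PPARd-bla cells rested 5 h at 37 C and 5% CO2. Compound, then agonist L165041 at 300 nM final, was added; 17 h at 37 C followed. Substrate loading, 2 h room temperature, fluorescence measured.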
# Tags describe the fitted curve by direction and shape or compound fluorescence and quenching.
smiles,measurement,setting,value
CN(C)CCCOC1(Cc2ccccc2)CCCCCC1,"viability change, negative = cytotoxic",[1],inconclusive: -30.1% [cytotoxic]
same,Potency,[2],inactive
same,Potency,[3],"inconclusive [cytotoxic, single point]"
same,Potency,[4],"inconclusive [cytotoxic, full curve]"
same,Potency,[5],"inconclusive [activator, single point]"
same,Potency,[6],"inconclusive [inhibitor, partial curve, poor fit]"
same,Potency,[7],inconclusive
same,Potency,[8],"inconclusive [rising, partial curve, poor fit]"
same,Potency,[9],"inconclusive [cytotoxic, partial curve]"
CC1=Nc2ccc3ccccc3c2C1(C)C,Potency,[10],"inconclusive [cytotoxic, single point]"
same,Potency,[11],"inconclusive [rising, full curve]"
same,Potency,[12],"inconclusive [activator, partial curve]"
same,Potency,[13],"inconclusive [falling, partial curve]"
same,Potency,[14],"inconclusive [rising, single point]"
same,Potency,[2],inconclusive
same,Potency,[5],"inconclusive [falling, full curve]"
same,Potency,[6],"inconclusive [inhibitor, single point]"
same,Potency,[7],"inconclusive [activator, single point]"
same,Potency,[8],inconclusive
Cc1ccc(C)c(N)c1,Potency,[15],inactive
same,"ratio activity, negative = inhibition",[16],inconclusive: -1.89%
same,"activity change, negative = inhibition",[2],inconclusive: 21.6%
same,Potency,[5],inactive
same,Potency,[6],"inconclusive [inhibitor, partial curve, poor fit]"
same,Potency,[8],inactive
